Like-named read-outs stand apart in the source and are kept apart here. No constants are given. Whether binding was seen depends on the method and setting. In cells and extracts the contact can be indirect. Some results given as binding are weak or reduced against the parent protein; the word gives no strength. For some of these results: Where a sequence is shown, tags or fusion partners need not be part of it. Values belong to the molecule of their own block, whether it stands above or below them.
Experiments:
FLAG-tagged Lfc = target: T1, FLAG-tagged Lfc (UniProt Q60875); assay: co-IP; FLAG-tagged Lfc and HA-tagged RhoA co-expressed in HEK293T cells; lysate in buffer A; western blot
T1 sequence: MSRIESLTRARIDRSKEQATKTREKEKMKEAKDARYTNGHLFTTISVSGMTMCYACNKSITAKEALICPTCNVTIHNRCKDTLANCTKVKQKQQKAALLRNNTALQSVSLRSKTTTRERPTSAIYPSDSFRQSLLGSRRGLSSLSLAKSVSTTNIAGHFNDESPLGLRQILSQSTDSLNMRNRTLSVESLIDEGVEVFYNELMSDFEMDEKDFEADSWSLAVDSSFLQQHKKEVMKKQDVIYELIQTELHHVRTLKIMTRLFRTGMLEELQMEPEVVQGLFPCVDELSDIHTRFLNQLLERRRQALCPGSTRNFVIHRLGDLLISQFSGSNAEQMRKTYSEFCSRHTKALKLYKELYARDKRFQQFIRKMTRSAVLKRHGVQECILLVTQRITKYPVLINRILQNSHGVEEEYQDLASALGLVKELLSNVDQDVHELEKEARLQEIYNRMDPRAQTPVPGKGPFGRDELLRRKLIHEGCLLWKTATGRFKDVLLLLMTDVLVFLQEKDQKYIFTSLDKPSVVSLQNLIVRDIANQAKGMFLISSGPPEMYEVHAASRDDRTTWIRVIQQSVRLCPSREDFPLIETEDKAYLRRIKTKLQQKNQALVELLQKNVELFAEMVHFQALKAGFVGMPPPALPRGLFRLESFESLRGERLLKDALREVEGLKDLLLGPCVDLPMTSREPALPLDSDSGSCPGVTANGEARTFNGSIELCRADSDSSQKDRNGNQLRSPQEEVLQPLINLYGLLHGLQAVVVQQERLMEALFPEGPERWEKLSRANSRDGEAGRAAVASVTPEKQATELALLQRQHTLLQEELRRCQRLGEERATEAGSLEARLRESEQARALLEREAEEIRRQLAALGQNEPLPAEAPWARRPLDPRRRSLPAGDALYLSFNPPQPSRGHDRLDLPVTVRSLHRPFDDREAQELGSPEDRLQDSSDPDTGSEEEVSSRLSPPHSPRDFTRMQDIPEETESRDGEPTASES

By UniProt entry, the sequences of proteins in these tests, tags left out.
UniProt P61809: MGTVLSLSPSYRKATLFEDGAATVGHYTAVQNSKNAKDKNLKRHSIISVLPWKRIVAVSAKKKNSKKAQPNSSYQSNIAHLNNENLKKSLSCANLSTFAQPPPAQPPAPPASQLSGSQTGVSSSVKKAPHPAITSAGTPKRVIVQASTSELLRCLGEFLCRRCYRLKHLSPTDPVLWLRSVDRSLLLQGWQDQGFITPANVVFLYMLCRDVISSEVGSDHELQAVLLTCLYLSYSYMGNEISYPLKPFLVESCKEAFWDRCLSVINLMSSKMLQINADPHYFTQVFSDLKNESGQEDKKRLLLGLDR
UniProt P61586: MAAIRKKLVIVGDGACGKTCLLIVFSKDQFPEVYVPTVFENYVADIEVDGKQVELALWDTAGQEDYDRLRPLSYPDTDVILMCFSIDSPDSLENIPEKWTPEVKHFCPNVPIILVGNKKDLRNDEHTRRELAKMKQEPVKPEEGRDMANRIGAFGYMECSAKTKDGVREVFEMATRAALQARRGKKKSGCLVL
UniProt Q60610: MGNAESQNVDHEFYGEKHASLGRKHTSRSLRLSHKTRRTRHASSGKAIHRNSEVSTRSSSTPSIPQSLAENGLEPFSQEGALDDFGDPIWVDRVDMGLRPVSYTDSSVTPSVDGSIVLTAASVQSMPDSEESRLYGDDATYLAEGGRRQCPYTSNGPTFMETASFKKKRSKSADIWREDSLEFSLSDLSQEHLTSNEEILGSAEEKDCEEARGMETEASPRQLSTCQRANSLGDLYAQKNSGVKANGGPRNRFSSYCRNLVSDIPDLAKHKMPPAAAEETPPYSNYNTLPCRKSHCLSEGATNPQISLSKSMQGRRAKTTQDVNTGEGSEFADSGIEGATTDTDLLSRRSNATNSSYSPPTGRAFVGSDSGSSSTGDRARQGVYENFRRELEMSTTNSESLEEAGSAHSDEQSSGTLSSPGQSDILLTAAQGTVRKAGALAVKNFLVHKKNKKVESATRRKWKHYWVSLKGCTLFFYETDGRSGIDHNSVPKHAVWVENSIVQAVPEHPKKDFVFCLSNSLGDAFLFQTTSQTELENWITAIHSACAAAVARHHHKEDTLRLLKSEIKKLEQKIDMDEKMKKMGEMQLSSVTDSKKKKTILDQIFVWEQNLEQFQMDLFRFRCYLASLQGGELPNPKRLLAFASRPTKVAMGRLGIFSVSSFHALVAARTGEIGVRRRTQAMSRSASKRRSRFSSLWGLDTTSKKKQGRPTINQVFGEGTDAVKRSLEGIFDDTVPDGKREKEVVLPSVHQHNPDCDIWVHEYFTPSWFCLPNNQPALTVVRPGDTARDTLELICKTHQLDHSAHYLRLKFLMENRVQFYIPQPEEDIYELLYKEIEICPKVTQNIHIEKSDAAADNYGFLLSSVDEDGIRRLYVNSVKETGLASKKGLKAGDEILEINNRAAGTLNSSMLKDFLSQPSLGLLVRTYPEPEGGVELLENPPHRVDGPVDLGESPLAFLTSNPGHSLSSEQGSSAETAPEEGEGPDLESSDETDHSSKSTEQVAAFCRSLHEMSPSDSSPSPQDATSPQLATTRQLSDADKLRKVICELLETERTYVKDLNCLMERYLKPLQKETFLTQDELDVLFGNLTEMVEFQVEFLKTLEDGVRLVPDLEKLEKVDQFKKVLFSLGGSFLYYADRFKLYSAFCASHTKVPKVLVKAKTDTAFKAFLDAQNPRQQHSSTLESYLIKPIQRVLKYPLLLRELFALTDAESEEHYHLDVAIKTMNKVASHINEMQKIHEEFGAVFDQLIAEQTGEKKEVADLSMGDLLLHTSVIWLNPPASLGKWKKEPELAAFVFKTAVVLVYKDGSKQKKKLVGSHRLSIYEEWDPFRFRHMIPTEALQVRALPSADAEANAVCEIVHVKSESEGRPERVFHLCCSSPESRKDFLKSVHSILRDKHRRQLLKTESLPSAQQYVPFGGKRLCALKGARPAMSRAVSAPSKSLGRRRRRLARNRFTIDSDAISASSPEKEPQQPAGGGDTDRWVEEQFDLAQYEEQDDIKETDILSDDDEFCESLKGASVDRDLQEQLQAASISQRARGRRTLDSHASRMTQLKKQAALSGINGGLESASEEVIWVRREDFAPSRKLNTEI

[1] = target: T2, FLAG-tagged CaMKv (calmodulin kinase-like vesicle-associated) (mouse) (UniProt Q3UHL1); assay: pull-down; FLAG-tagged CaMKv as bait; proteins pulled down from the synaptosome, detected by western blot
T2 sequence: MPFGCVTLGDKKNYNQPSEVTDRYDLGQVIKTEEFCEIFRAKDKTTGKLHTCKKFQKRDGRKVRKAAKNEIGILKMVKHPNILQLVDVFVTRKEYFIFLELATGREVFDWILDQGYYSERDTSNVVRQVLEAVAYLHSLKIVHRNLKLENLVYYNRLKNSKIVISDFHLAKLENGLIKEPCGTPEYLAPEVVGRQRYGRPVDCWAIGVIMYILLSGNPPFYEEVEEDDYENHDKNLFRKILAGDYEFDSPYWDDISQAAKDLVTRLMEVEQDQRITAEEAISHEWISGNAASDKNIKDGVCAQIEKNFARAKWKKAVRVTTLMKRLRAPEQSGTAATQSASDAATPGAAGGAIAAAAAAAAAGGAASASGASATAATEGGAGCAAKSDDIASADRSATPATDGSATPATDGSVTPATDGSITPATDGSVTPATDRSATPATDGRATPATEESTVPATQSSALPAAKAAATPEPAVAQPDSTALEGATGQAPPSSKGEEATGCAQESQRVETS

[2] = target: T2, FLAG-tagged CaMKv (calmodulin kinase-like vesicle-associated) (mouse); assay: as above; remark: listed apart in the source
[3] = target: T3, Lfc (GEF-H1), endogenous (mouse (endogenous in brain)) (UniProt Q60875); assay: co-IP; endogenous proteins in brain homogenate and synaptosome fractions; Lfc antibody (2 ug, GTX125893), protein G-Sepharose, buffer A (20 mM Tris pH 8.5, 50 mM NaCl, 1 mM EDTA, 1 mM NaF, 0.5% Nonidet P-40), 4 C; IgG as negative control
T3 sequence: T1 sequence

[4] = target: cyclin-dependent kinase 5 (Cdk5), endogenous (mouse (endogenous in brain)) (UniProt P49615); assay: co-IP; endogenous proteins from mouse brain lysates; western blot
[5] = target: p35, activator of Cdk5, endogenous (mouse (endogenous in brain)) (UniProt P61809); assay: as above

- binding (FLAG-tagged Lfc): binds
Molecule: HA-tagged RhoA (from UniProt P61586 1-193)

- binding [1]: no binding
Molecule: TIAM1, endogenous (from UniProt Q60610 1-1591)

- binding [2]: binds
B1: Lfc (GEF-H1), endogenous (protein, UniProt Q60875 1-985)
chain: T1 sequence

- binding [2]: no binding
B2: Ephexin1, endogenous (protein, UniProt Q8CHT1 1-710)
chain: METKNSEDWGKPQRKSESSSRKSNHGPAEMRPALPPENREAPETGEETQNEEPRRLIPIQRHSLFNRAVRHRHKARSTSERRASDQADLPKMGKSVNERSAFNLPQGRLSPWRTPAQRDTGAQEASESSSTPGNGTTPEECPALTDSPTTLTEALQMIHPIPADSWRNLIEQIGLLYQEYRDKSTLQEIETRRQQDAEIQGNSDGSQVGEDAGEEEEEEEEGEEEELASPPERRALPQICLLSNPHSRFNLWQDLPEIQSSGVLDILQPEEIRLQEAMFELVTSEASYYKSLNLLVSHFMENERLKKILHPSEAHILFSNVLDVMAVSERFLLELEHRMEENIVISDVCDIVYRYAADHFSVYITYVSNQTYQERTYKQLLQEKAAFRELIAQLELDPKCKGLPFSSFLILPFQRITRLKLLVQNILKRVEERSEREGTALDAHKELEMVVKACNEGVRKMSRTEQMISIQKKMEFKIKSVPIISHSRWLLKQGELQQMSGPKTSRTLRTKKLFREIYLFLFNDLLVICRQIPGDKYQVFDSAPRGLLRVEELEDQGQTLANVFILRLLENADDREATYMLKASSQSEMKRWMTSLAPNRRTKFVSFTSRLLDCPQVQCVHPYVAQQPDELTLELADILNILEKTEDGWIFGERLHDQERGWFPSSMTEEILNPKIRSQNLKECFRVHKMEDPQRSQNKDRRKLGSRNRQ

- binding [3]: binds
- binding [4]: binds
- binding [5]: binds
B3: CaMKv, endogenous (protein, UniProt Q3UHL1 1-512)
chain: T2 sequence
